No constants are given. Whether binding was seen depends on the method and setting. Binding seen in cells or lysates may run through a third protein. Some binding calls cover weakened binding; strength is not graded here.
T1: LpoB (YcfM), immobilised / added protein (E. coli) (UniProt P0AB38)
T1 sequence: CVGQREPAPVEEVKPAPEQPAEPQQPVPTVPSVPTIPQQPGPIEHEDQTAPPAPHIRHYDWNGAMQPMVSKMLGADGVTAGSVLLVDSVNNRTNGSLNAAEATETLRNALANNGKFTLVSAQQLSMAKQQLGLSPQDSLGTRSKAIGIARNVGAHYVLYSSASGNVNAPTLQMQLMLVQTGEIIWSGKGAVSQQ

T2: LpoA (YraM), immobilised / added protein (E. coli) (UniProt P45464)
T2 sequence: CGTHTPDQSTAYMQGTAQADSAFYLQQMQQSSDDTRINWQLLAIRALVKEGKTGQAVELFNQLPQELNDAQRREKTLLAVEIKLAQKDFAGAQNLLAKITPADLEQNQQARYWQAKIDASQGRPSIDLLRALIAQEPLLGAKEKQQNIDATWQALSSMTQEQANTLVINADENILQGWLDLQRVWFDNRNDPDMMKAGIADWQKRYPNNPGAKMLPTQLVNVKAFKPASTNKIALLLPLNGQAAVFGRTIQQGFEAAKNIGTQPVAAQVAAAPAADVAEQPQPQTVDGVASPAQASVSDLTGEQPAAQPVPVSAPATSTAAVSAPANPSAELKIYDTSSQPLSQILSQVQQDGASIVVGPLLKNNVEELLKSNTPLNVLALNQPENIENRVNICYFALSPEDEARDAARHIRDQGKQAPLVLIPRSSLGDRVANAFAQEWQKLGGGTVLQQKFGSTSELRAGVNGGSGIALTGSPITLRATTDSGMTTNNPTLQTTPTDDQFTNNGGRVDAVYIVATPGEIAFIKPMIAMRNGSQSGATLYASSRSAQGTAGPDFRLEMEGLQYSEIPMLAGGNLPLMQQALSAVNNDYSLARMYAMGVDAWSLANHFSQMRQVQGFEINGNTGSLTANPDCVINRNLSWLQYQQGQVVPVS

T3: PBP1B, purified (E. coli) (UniProt P02919)
T3 sequence: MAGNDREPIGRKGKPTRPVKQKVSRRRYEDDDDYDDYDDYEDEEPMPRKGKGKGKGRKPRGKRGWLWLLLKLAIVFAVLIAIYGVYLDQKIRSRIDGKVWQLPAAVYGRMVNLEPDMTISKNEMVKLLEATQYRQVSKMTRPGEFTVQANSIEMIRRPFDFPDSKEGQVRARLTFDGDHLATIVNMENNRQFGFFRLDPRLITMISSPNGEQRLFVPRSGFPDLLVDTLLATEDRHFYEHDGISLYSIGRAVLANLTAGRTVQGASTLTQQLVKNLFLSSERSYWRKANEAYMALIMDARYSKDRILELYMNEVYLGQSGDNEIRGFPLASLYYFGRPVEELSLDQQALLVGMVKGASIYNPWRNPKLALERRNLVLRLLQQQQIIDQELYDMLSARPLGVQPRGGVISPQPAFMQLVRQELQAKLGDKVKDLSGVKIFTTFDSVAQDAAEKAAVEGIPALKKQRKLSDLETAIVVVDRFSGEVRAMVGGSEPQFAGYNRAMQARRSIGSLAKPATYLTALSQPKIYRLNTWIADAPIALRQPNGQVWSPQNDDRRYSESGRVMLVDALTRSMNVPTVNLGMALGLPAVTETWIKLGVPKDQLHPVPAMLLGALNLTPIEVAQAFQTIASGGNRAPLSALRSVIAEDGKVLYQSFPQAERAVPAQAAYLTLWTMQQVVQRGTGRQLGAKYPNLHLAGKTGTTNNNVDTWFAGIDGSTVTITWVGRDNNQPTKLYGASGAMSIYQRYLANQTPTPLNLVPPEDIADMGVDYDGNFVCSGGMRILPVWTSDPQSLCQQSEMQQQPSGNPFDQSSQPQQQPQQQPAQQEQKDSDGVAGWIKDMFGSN

T4: PBP1B, endogenous (E. coli (endogenous in E. coli)) (UniProt P02919)
T4 sequence: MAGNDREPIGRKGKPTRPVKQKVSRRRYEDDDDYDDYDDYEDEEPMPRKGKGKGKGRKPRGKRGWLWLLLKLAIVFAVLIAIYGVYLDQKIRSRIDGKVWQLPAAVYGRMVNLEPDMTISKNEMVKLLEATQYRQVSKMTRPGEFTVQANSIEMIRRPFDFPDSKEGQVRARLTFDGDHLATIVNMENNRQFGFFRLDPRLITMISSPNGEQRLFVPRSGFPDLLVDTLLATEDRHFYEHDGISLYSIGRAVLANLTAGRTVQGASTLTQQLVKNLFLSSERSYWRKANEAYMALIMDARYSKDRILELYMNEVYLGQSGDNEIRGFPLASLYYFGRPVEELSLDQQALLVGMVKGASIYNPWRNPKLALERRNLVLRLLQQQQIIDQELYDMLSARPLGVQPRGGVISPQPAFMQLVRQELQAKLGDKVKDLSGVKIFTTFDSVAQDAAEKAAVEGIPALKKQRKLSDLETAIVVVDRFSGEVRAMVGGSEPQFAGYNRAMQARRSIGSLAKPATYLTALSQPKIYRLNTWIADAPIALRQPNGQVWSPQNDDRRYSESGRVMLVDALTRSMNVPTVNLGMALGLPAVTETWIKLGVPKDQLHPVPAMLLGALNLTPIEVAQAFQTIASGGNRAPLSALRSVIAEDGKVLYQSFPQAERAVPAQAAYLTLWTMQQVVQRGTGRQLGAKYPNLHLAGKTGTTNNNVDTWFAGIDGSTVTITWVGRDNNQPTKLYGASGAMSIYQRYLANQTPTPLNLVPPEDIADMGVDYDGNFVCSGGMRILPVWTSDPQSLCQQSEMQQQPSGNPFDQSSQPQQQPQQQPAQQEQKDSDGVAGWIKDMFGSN


Legend:
[1] = biological target: T1, LpoB (YcfM), immobilised / added protein (E. coli); assay: pull-down; affinity chromatography: E. coli membrane fraction applied in 400 mM NaCl to sepharose columns with immobilised protein, empty sepharose as control; washed, eluted with 2 M NaCl; SDS-PAGE, Western blot and immunodetection of Lpo proteins or PBPs; only the target purified
[2] = biological target: T2, LpoA (YraM), immobilised / added protein (E. coli); assay: as above
[3] = biological target: T3, PBP1B, purified (E. coli); assay: as above
[4] = biological target: T4, PBP1B, endogenous (E. coli (endogenous in E. coli)); assay: cross-linking + co-IP; E. coli cells treated with DTSSP cross-linker in vivo; membrane fractions immunoprecipitated with LpoA or PBP1B antibodies and protein G-agarose; cross-link reverted with reducing agent; immunodetection of PBP1A or LpoB

Row | binding [1] | binding [2] | binding [3] | binding [4] | Binder
1 | binds | no binding | – | – | PBP1B, endogenous (enzyme, UniProt P02919 1-844) MAGNDREPIGRKGKPTRPVKQKVSRRRYEDDDDYDDYDDYEDEEPMPRKGKGKGKGRKPRGKRGWLWLLLKLAIVFAVLIAIYGVYLDQKIRSRIDGKVWQLPAAVYGRMVNLEPDMTISKNEMVKLLEATQYRQVSKMTRPGEFTVQANSIEMIRRPFDFPDSKEGQVRARLTFDGDHLATIVNMENNRQFGFFRLDPRLITMISSPNGEQRLFVPRSGFPDLLVDTLLATEDRHFYEHDGISLYSIGRAVLANLTAGRTVQGASTLTQQLVKNLFLSSERSYWRKANEAYMALIMDARYSKDRILELYMNEVYLGQSGDNEIRGFPLASLYYFGRPVEELSLDQQALLVGMVKGASIYNPWRNPKLALERRNLVLRLLQQQQIIDQELYDMLSARPLGVQPRGGVISPQPAFMQLVRQELQAKLGDKVKDLSGVKIFTTFDSVAQDAAEKAAVEGIPALKKQRKLSDLETAIVVVDRFSGEVRAMVGGSEPQFAGYNRAMQARRSIGSLAKPATYLTALSQPKIYRLNTWIADAPIALRQPNGQVWSPQNDDRRYSESGRVMLVDALTRSMNVPTVNLGMALGLPAVTETWIKLGVPKDQLHPVPAMLLGALNLTPIEVAQAFQTIASGGNRAPLSALRSVIAEDGKVLYQSFPQAERAVPAQAAYLTLWTMQQVVQRGTGRQLGAKYPNLHLAGKTGTTNNNVDTWFAGIDGSTVTITWVGRDNNQPTKLYGASGAMSIYQRYLANQTPTPLNLVPPEDIADMGVDYDGNFVCSGGMRILPVWTSDPQSLCQQSEMQQQPSGNPFDQSSQPQQQPQQQPAQQEQKDSDGVAGWIKDMFGSN
2 | – | – | binds | binds | LpoB (YcfM), endogenous (protein, UniProt P0AB38 20-213) CVGQREPAPVEEVKPAPEQPAEPQQPVPTVPSVPTIPQQPGPIEHEDQTAPPAPHIRHYDWNGAMQPMVSKMLGADGVTAGSVLLVDSVNNRTNGSLNAAEATETLRNALANNGKFTLVSAQQLSMAKQQLGLSPQDSLGTRSKAIGIARNVGAHYVLYSSASGNVNAPTLQMQLMLVQTGEIIWSGKGAVSQQ
